Like-named read-outs stand apart in the source and are kept apart here.

Data set [1] relates to SHIV AD8-EO. Put plainly: TZM-bl neutralization of SHIV AD8-EO by plasma from BNM-III-170-treated RMs. As to conditions: 2 × 36 mg/kg, 1 day interval treatment cycle; including plasma 24 h after administration.
Data set [2] deals with target cells infected with SHIV AD8-EO. The format is cell-based.
The test system of a further data set is HIV-1. To be noted: mouse, in vivo; cited from earlier work.
Data set [3] concerns SHIV AD8-EO. Briefly: Viral infectivity / neutralization assay in TZM-bl cells with SHIV variants. To be noted: 2 µM BNM-III-170 (Fig. 2B).
For data set [4] the following is noted: in vivo.
Another data set deals with ADCC. To be noted: cited from earlier work.
Data set [5] relates to CEM.NKr-CCR5-sLTR-Luc cells infected with SHIV AD8-EO. The class given is cell-based.
Data set [6] in a line: Plasma pharmacokinetics of BNM-III-170 in SHIV AD8-EO-infected RMs (HPLC-MS/MS). As to conditions: first dose of each treatment cycle. The class given is in vivo, Macaca mulatta. On the procedure: Plasma concentrations of BNM-III-170 in SHIV-infected animals were measured via liquid chromatography and mass spectrometry at several timepoints following each BNM-III-170 dose for all treatment cycles.

Take `CNCc1ccc2c(c1)C[C@H](CN=C(N)N)[C@H]2NC(=O)C(=O)Nc1ccc(Cl)c(F)c1.O=C(O)C(F)(F)F.O=C(O)C(F)(F)F` [BNM-III-170]: the “neutralization of SHIV AD8-EO by RM plasma collected after BNM-III-170 administration” value in the data set on SHIV AD8-EO [1] was “SHIV AD8-EO was neutralized by RM plasma”. Besides, the “sensitization of infected target cells to ADCC in the presence of plasma from PWH” value in data set [2] is recorded as “sensitize target cells infected with SHIV AD8-EO to ADCC”. Further, in the data set with HIV-1, the “HIV-1 DNA levels in CD4+ T cells from peripheral blood, spleen, mucosa, and liver” value was “reduce HIV-1 DNA levels in CD4+ T cells”; the “sustained plasma concentrations during the treatment cycle” value was “above 200 ng/mL”; the “time to viral rebound” value is on record as “significant delay in time to viral rebound”. Besides, in the data set with SHIV AD8-EO [3], the “sensitization to neutralization by non-neutralizing anti-V3 CD4i 19b antibody” value is listed as “sensitize SHIV AD8-EO to neutralization”. In data set [4], the “max plasma concentrations (Cmax)” value was 1900 to 15300 ng/mL, the plasma half-life fell in the range of 3 to 6 h, the “time of peak plasma level” value is 30 to 120 min and the “time plasma levels maintained above estimated effective concentration for ADCC of 0.675 µg/mL” value was 8 to 12 h. Moreover, in the data set with ADCC, the “estimated effective concentration for ADCC” value was 0.675 µg/mL. In data set [5], the “exposure of 17b mAb epitope on infected cells” value is “induce conformational changes that exposed the 17b mAb epitope”. The “time of peak plasma level” value in data set [6] was at most 1.5 h.

The record behind these values is article PMC12090809 (Journal of Virology, 2025).
